Source: paper PMC4336329 (PLoS ONE, 2015)
Screen size: about 310,000 compounds; about 14,000 (4.5%) showed an effect of 50% or more. Effects have a minus sign here. This is one part of the list.

These compounds were tested against human ether-à-go-go-related gene (hERG) potassium channel (human, UniProt Q12809) (assay: primary screen, population patch clamp on CHO cells stably expressing hERG).
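Note: peak tail current of the secondary pulse compared with the same well before compound.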

Sequence of human ether-à-go-go-related gene (hERG) potassium channel (Q12809 whole entry, looked up): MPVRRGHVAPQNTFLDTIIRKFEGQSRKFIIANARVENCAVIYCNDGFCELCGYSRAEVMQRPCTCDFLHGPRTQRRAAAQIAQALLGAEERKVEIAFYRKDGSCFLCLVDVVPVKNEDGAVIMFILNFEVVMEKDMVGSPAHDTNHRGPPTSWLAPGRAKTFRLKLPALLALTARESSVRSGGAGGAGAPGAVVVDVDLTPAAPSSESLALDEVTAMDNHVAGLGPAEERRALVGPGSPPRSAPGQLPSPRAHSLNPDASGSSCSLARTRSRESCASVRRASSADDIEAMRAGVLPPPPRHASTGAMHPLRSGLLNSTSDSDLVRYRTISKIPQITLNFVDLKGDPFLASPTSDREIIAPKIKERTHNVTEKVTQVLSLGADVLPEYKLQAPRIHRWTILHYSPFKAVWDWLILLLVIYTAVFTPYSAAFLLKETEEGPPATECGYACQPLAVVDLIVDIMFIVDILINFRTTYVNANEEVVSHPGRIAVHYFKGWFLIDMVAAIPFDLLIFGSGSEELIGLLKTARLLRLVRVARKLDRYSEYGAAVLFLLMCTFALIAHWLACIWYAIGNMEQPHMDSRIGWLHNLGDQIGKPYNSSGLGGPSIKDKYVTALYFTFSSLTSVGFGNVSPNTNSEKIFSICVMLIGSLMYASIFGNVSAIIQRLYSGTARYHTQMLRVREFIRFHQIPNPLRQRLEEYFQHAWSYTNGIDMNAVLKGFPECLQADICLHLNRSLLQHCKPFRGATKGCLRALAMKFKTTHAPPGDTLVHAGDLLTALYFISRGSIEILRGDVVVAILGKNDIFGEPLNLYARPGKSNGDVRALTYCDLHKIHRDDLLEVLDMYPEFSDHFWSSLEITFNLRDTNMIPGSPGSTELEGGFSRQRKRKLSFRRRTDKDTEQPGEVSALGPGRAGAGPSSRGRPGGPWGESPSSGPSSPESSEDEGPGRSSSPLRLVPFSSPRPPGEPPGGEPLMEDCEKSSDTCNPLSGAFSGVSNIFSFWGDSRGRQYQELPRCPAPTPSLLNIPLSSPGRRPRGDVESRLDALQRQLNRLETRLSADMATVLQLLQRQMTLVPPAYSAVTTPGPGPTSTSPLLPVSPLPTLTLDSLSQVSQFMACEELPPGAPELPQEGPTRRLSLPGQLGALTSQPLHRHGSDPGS

In order of falling “hERG current change (%, negative = inhibition) at 10uM” value:
1. O=C1[C@@H]2C(c3cccnc3)=NO[C@@H]2C(=O)N1c1ccc2ccccc2c1  21.1%
2. COc1cc(CN2CC(=O)N(c3cc(Cl)ccc3C)C2=S)cc(OC)c1OC  20.7%
3. NC(=O)C1CCN(C(=S)NCCc2ccccc2)CC1  19.7%
4. Cc1cc(C)c(/C=N/NC(=O)c2nnn(-c3nonc3N)c2CN2CCC(C)CC2)c(C)c1  18.8%
5. O=C(CCS(=O)(=O)c1ccccc1)Nc1ncc([N+](=O)[O-])s1  17.7%
6. COc1ccc(NC2CCCN(C(=O)c3ccc(C(C)=O)s3)C2)cc1 (centres unmarked)  16.1%
7. C#CCSc1n[nH]c(-c2ccco2)n1  16.1%
8. CCCCc1ccc(-c2csc(/C(C#N)=C/c3ccc(C)o3)n2)cc1  15.9%
9. Cn1nc(C(=O)Nc2cccc(Cl)c2)cc1C(=O)Nc1cccc(Cl)c1  15.8%
10. S=c1[nH]nc(-c2cc(-c3ccsc3)n[nH]2)n1-c1ccccc1  15.1%
11. COC(=O)[C@H](NC(=O)c1cc(-c2ccccc2)nc2ccccc12)c1ccccc1  15%
12. Cc1cc(C)cc(NC(=S)N(Cc2ccc(Br)cc2)Cc2ccc(C(=O)O)cc2)c1  13.7%
13. CCC(C)(C)NC(=O)/C=C/c1cnc2ccccc2n1  13.6%
14. CCOc1ccccc1NC(=O)NC1CCCCCCC1  13.6%
15. CC(C)Cc1nnc(NC(=O)CCC(=O)N2CCN(c3ccccc3)CC2)s1  13.2%
16. Cc1ccc(N2C(=O)c3ccc(N)cc3C2=O)cc1  13.2%
17. O=c1nccc(SCc2ccc(Cl)cc2Cl)[nH]1  12.7%
18. CCOC(=O)c1c(C)c(C(=O)O)n(C)c1C  12.3%
19. Cc1cc(=O)[nH]c2c1c(C)nn2-c1ccccc1  10.9%
20. Cn1c2c(c(=O)n(C)c1=O)C(c1ccccc1F)C(C#N)=C(N)O2 (centres unmarked)  10.4%
21. COc1cc(NC(=S)NCCc2c[nH]c3ccccc23)c(OC)cc1Cl  10.1%
22. CCn1c(SCC(=O)NC)nnc1C(C)C  9.9%
23. COC(=O)c1ccc(OC)c(CSc2nnc(-c3ccc(C(C)(C)C)cc3)o2)c1  9.83%
24. O=C(O)c1cn(-c2ccccc2)c(=O)c2ccccc12  9.72%
25. CCC(Sc1nc2ccccc2[nH]1)C(=O)Nc1cc(C)on1 (centres unmarked)  9.34%
26. O=C(O)C1=C[C@H](c2csc3ccccc23)C[C@H](OCCCCO)O1  8.62%
27. Cc1ccc(C)c(NS(=O)(=O)c2cc(C(=O)N3CCc4ccccc4C3)ccc2Cl)c1  8.24%
28. COc1ccc(-c2c(C)n([O-])c(C)c(-c3ccccc3)[n+]2=O)cc1OC  7.35%
29. CC(C)NC(=O)C(c1ccc(F)cc1)N(C(=O)CCC(=O)Nc1ccccn1)c1cccc(F)c1 (centres unmarked)  6.37%
30. CC(=O)Nc1ccc(N=c2cc([N+](=O)[O-])cc(Cl)n2O)cc1  5.97%
31. CCCCN(C(=O)c1cc2c(s1)CCCC2)c1c(N)n(CCC)c(=O)[nH]c1=O  5.65%
32. CC(C)C(=O)Nc1c2c(nc3c1CCC3)CCCC2  5.23%
33. CSc1ccccc1C(=O)NCc1ccccc1C  4.87%
34. CCOC(=O)c1c(C)nc2sc(C(=O)Nc3ccc(C(C)=O)cc3)c(N)c2c1-c1ccc(OC)cc1  4.74%
35. Cc1ccc(C(=O)O)cc1-c1ccc(/C=C2/NC(=O)N(c3ccccc3)C2=O)o1  4.44%
36. CCOC(=O)C1CCCN(C(=O)c2cc3ncc(Br)cn3n2)C1 (centres unmarked)  3.43%
37. Cc1ccc(C2=NN(C(=O)CCC(=O)O)C(c3cn(-c4ccccc4)nc3-c3ccc(C)cc3)C2)cc1 (centres unmarked)  2.78%
38. O=C(NC1CCCCC1)C(c1ccncc1)N(CC1CCCO1)C(=O)C(F)(F)F (centres unmarked)  2.44%
39. O=C1CCC(C(=O)OCc2cc(Cl)ccc2OC(F)F)N1 (centres unmarked)  0.725%
40. C=CCNC(=O)C(=O)NN=C1CCN(C)CC1  0.576%
41. COc1ccc(NC(=O)c2ccc3c(=O)n(-c4ccc(OC)cc4OC)c(=S)[nH]c3c2)c(OC)c1  0.523%
42. CCOc1ccc(OCC(=O)Nc2ccccc2C(F)(F)F)cc1  0.3%
43. CC(C)CNc1nc2c(c(=O)n(C)c(=O)n2C)n1Cc1cccc(Br)c1  0.0145%
44. COc1ccc(Nc2nc(NCc3ccco3)nc(N/N=C/c3ccccc3)n2)cc1  -0.0402%
45. CCc1nnc(NC(=O)CSc2ccc(-c3cccs3)nn2)s1  -0.177%
46. COc1cccc2[nH]c3c(N4CCC5(CC4)OCCO5)ncnc3c12  -0.305%
47. CCN(CC)c1ccc(/C=C/C(=O)c2cccnc2)cc1  -1.37%
48. C=CCN(CC=C)C(=S)NC(=O)/C=C/c1ccc(OC)cc1  -3.54%
49. CC(=O)c1cccc(S(=O)(=O)NCCCN2CCOCC2)c1.Cl  -3.77%
50. CSc1ccc(CN2C(=O)NC3(CCCCCCC3)C2=O)cc1  -4.06%
51. COc1ccc(NC(=O)C2CC(=O)N(Cc3ccco3)C2)cc1Cl (centres unmarked)  -4.14%
52. Cc1cc2c(cc(C(=O)OC(C(=O)NCc3ccco3)C(C)C)n2C)o1 (centres unmarked)  -4.4%
53. Cl.c1ccc(-c2nc(NCCCn3ccnc3)c3oc4ccccc4c3n2)cc1  -4.89%
54. O=C(N/N=C/c1ccc(O)cc1)c1cc(C2CC2)[nH]n1  -4.89%
55. Cn1cccc1-c1nc2ccccc2[nH]1  -5.21%
56. CCOc1ccc(CN(C)CC(=O)Nc2cccc(S(=O)(=O)N(C)c3ccccc3)c2)cc1.O=C(O)C(=O)O  -5.31%
57. COc1ccc(C(C)C)cc1S(=O)(=O)N1CCC(C(=O)NCc2cccnc2)CC1  -5.48%
58. CCC1(C2=NCCN2)Cc2ccccc2O1.Cl (centres unmarked)  -6.18%
59. CCOC(=O)CN=C(NS(=O)(=O)c1ccc(Cl)cc1)c1ccccc1  -6.58%
60. O=C(CN(Cc1ccco1)C(=O)CCC(=O)Nc1ccccn1)NCCc1ccccc1  -6.94%
61. O=C(NC1CCN(Cc2ccccc2)CC1)c1ccc(Oc2cc(Cl)cc(Cl)c2)o1  -6.95%
62. CC1(C)CC(=O)C2=C(C1)N1C(=C(C#N)C2c2ccc(Cl)cc2)N=C(N)c2ccccc21 (centres unmarked)  -7.52%
63. CCCCn1c(N)c(N(CC)C(=O)Cc2ccc(S(=O)(=O)N3CCOCC3)s2)c(=O)[nH]c1=O  -7.55%
64. O=C(C[n+]1cccc(CNC(=O)c2ccc(OC(F)F)cc2)c1)Nc1ccccc1Cl.[Cl-]  -10.3%
65. O=C(N/N=C/c1ccc(Cl)cc1Cl)c1cccc(F)c1  -10.5%
66. COc1cccc(CNC(=O)C2CCCN(c3nn4c(=O)cc(C)nc4s3)C2)c1 (centres unmarked)  -11.9%
67. CCCSCC(=O)Nc1ncc2c(n1)-c1ccccc1CC2  -13.5%
68. Cc1ccc(C)c2[nH]c(=O)c(C(c3nnnn3C3CCCC3)N3CCOCC3)cc12 (centres unmarked)  -13.7%
69. COc1ccccc1-n1c(-c2ccoc2)nc2ccccc2c1=O  -17.1%
70. COCCOC(=O)C1=C(C)NC(C)=C(C(=O)OC(C)C)C1c1cccc([N+](=O)[O-])c1 (centres unmarked)  -19.6%
71. CCC(C(=O)NC1CCCC1)N(C(=O)Cn1nnc(-c2ccc(C)o2)n1)C(C)(C)C (centres unmarked)  -19.6%
72. CN1CCN(C(=O)C2=C[C@@H](c3ccc(C(F)(F)F)cc3)C[C@@H](OCCCCO)O2)CC1  -20.2%
73. COc1cc(OC)c(N2CC(C(=O)Nc3cc(Cl)ccc3N3CCOCC3)CC2=O)cc1Cl (centres unmarked)  -21.9%
74. Cc1cccc(Cn2nc(C)cc2NC(=O)Cn2cc([N+](=O)[O-])cn2)c1  -23.4%
75. N#CCCN(C(=O)COc1ccc(C#N)cc1)c1ccc(F)cc1  -27.7%
76. CCCCNC(=O)CCC(=O)Nc1ccc2nc(N3CCC(C)CC3)cc(C)c2c1  -27.9%
77. COCCCn1c(SCC(=O)N2CCOCC2)nc2cc(Cl)ccc2c1=O  -31.8%
78. Cc1cc(C)cc(C(=O)NC(=S)Nc2cccnc2)c1  -32.4%
79. CCCC[n+]1c2ccccc2cc2ccccc21.[I-]  -32.9%
80. CC(C)CC(=O)O/N=C1\C(=O)N(Cc2ccc(Cl)cc2)c2ccc([N+](=O)[O-])cc21  -36.1%
81. CC(C)c1ccc(/C=C2\SC(N3CCOCC3)=NC2=O)cc1  -43%
82. COc1ccc(-n2c(SCC(=O)Nc3ccc4c(c3)OCO4)nnc2C(C)N2CCCCC2)cc1 (centres unmarked)  -43.5%
83. O=C(CSc1nnc(-c2ccncc2)n1CCc1ccccc1)NCc1ccccc1  -46.1%
84. CC(C)(C)c1csc(NC(=O)C2COc3ccccc3O2)n1 (centres unmarked)  -47.6%
85. O=C(Nc1ccc(C(=O)NCCCN2CCN(c3ccc(F)cc3)CC2)cc1)C1=CSCCO1  -54%
86. CN1CCN(C2=NC(=O)/C(=C/c3ccccc3OS(=O)(=O)c3ccccc3)S2)CC1  -76.1%
